# Measured values taken from the antibiotic and cytotoxicity screens of Wong et al. (2023).
# The other results are listed elsewhere or left out.
# Test system: HSkMC (human skeletal muscle cells)
# Experiment: cytotoxicity call (relative viability < 0.9)
# Conditions: 10 µM
row,Structure (SMILES),cytotoxicity call
1,Cc1noc(C)c1NC(=O)Nc1ccc2c(c1)C(=O)N([C@@H](C)CO)C[C@H](C)[C@@H](CN(C)C(=O)Nc1ccc3c(c1)OCO3)OCCCC[C@H](C)O2,inactive
2,Cc1noc(C)c1NC(=O)N(C)C[C@H]1Oc2ccc(NC(=O)Cn3cnnn3)cc2C(=O)N([C@H](C)CO)C[C@H]1C,inactive
3,COc1ccc(CN(C)C[C@H]2Oc3ccc(NS(=O)(=O)c4c(C)noc4C)cc3CC(=O)N([C@@H](C)CO)C[C@H]2C)cc1,inactive
4,Cc1ccc(S(=O)(=O)N2C[C@@H](O)COC[C@H]3O[C@@H](CC(=O)N[C@@H]4CCN(Cc5ccccc5)C4)CC[C@@H]32)cc1,inactive
5,C[C@@H]1CN([C@H](C)CO)S(=O)(=O)c2ccc(C#CCC3CCCC3)cc2O[C@@H]1CN(C)C(=O)CN(C)C,inactive
6,CCCN1C[C@@H](C)[C@@H](OC)CN(C)C(=O)c2ccc(NS(=O)(=O)c3cn(C)cn3)cc2OC[C@H]1C,inactive
7,CC/C=C\C/C=C\C/C=C\C/C=C\C/C=C\CCCC(=O)O,inactive
8,C[C@H]1CN([C@@H](C)CO)C(=O)Cc2cc(NC(=O)c3ccncc3)ccc2O[C@@H]1CN(C)S(=O)(=O)c1cccs1,inactive
9,N#Cc1c(Oc2ccc(F)c(NC(=O)Cc3cccc(C(F)(F)F)c3)c2)ccc2nc(NC(=O)C3CC3)sc12,active
10,C[C@@H]1CN([C@@H](C)CO)C(=O)c2cc(NC(=O)Nc3ccc(C(F)(F)F)cc3)ccc2O[C@@H]1CN(C)Cc1ccc(C(=O)O)cc1,inactive
11,C[C@@H]1CN([C@@H](C)CO)C(=O)c2cc(NC(=O)CCC(F)(F)F)ccc2O[C@@H](C)CCCCO[C@H]1CN(C)C(=O)NC1CCCCC1,inactive

# Test system: HepG2
# Experiment: cytotoxicity call (relative viability < 0.9)
# Conditions: 10 µM
row,Structure (SMILES),cytotoxicity call
1,COCC(=O)Nc1ccc2c(c1)OC[C@@H](C)N(C(=O)Cc1ccccn1)C[C@H](C)[C@@H](OC)CN(C)C2=O,inactive
2,C[C@@H]1CCCCO[C@@H](CN(C)C(=O)Nc2ccccc2)[C@@H](C)CN([C@H](C)CO)C(=O)c2cc(NS(=O)(=O)c3cccs3)ccc2O1,inactive
3,COc1ccc2c3c([nH]c2c1)[C@H](CO)N(C[C@]13CCN(CC1)CC1CCCCC1)C(=O)Nc1c(noc1C)C,inactive
4,C[C@H](CO)N1C[C@H](C)[C@H](CN(C)C(=O)Nc2cccc3ccccc23)OCCCC[C@H](C)Oc2ccc(NS(=O)(=O)c3cn(C)cn3)cc2C1=O,inactive
5,CCCC#Cc1cnc2c(c1)C(=O)N([C@H](C)CO)C[C@H](C)[C@@H](CN(C)S(=O)(=O)c1cccc(OC)c1)O2,inactive
6,C[C@@H]1CN([C@H](C)CO)S(=O)(=O)c2ccc(C#Cc3ccc(F)cc3)cc2O[C@H]1CN(C)S(=O)(=O)c1cn(C)cn1,inactive
7,C[C@H]1CN([C@@H](C)CO)C(=O)CCCn2nncc2CO[C@@H]1CN(C)S(=O)(=O)c1ccc(C#N)cc1,inactive
8,CCS(=O)(=O)N1CC[C@]2(CC1)CN([C@@H](CO)c1[nH]c3cc(ccc3c12)OC)C(=O)Cc1ccccn1,inactive
9,C[C@@H]1CN([C@H](C)CO)C(=O)c2cccc(NC(=O)Nc3ccccc3)c2O[C@H]1CN(C)Cc1ccc(Cl)c(Cl)c1,inactive
10,CC1=NNc2nc3c(c(=O)n(C)c(=O)n3C)n2C1,inactive
11,C[C@@H]1CN([C@H](C)CO)S(=O)(=O)c2ccc(-c3cncnc3)cc2O[C@@H]1CN(C)C(=O)c1cccc(F)c1,inactive
12,C[C@@H]1CN([C@@H](C)CO)C(=O)c2cccc(NS(=O)(=O)c3cccs3)c2O[C@@H]1CN(C)S(=O)(=O)c1ccccc1,inactive
13,COCCNC(=O)C[C@@H]1C[C@H]2c3cc(NC(=O)CN(C)C)ccc3O[C@H]2[C@@H](CO)O1,inactive
14,COCC(=O)N(C)C[C@H]1Oc2cc(-c3ccc(C#N)cc3)ccc2S(=O)(=O)N([C@H](C)CO)C[C@H]1C,inactive
15,Cc1ccc(S(N)(=O)=O)cc1,inactive
16,CO[C@@H]1CN(C)C(=O)c2cc(NC(=O)Nc3cccc(F)c3)ccc2OC[C@H](C)N(C(=O)Nc2c(C)noc2C)C[C@@H]1C,inactive
17,C[C@@H]1CN([C@H](C)CO)C(=O)c2cc(NS(=O)(=O)c3ccccc3)ccc2O[C@@H](C)CCCCO[C@@H]1CN(C)S(=O)(=O)c1ccc(Cl)cc1,inactive
18,C[C@@H]1CN([C@@H](C)CO)C(=O)c2cc(NC(=O)Cn3cnnn3)ccc2O[C@H]1CN(C)Cc1ccccc1,inactive
19,COc1ccc(S(=O)(=O)N(C)C[C@@H]2Oc3cc(C4=CCCC4)ccc3S(=O)(=O)N([C@@H](C)CO)C[C@H]2C)cc1,inactive
20,CC(C)NC(=O)N(C)C[C@H]1OCCCC[C@@H](C)Oc2ccc(NS(C)(=O)=O)cc2C(=O)N([C@@H](C)CO)C[C@H]1C,inactive

row,Structure (SMILES),cytotoxicity call
1,Cn1cnc(S(=O)(=O)N[C@H]2C=C[C@@H](CC(=O)NCC3CC3)O[C@H]2CO)c1,inactive
2,COc1ccc2c3c([nH]c2c1)[C@H](CO)N(C[C@]13CN(C1)S(=O)(=O)C)C(=O)C1CC1,inactive
3,C[C@@H]1CN([C@@H](C)CO)C(=O)c2cc(NS(=O)(=O)c3cccs3)ccc2O[C@@H](C)CCCCO[C@@H]1CN(C)C(=O)CCC(F)(F)F,inactive
4,CON=C(C(=O)NC1C(=O)N2C(C(=O)OC(C)OC(C)=O)=C(COC(N)=O)CSC12)c1ccco1 (stereo unspecified),inactive
5,Cc1noc(C)c1S(=O)(=O)Nc1ccc2c(c1)C(=O)N([C@@H](C)CO)C[C@@H](C)[C@@H](CN(C)S(=O)(=O)c1cn(C)cn1)O2,inactive
6,Cc1noc(C)c1S(=O)(=O)Nc1cccc2c1O[C@@H](CN(C)S(=O)(=O)c1ccc(Cl)cc1)[C@@H](C)CN([C@@H](C)CO)C2=O,inactive
7,C[C@H]1CCCCO[C@H](CN(C)S(=O)(=O)c2cccs2)[C@@H](C)CN([C@@H](C)CO)C(=O)c2cc(NC(=O)Nc3ccc(F)cc3)ccc2O1,inactive
8,COCC(=O)Nc1ccc2c(c1)C(=O)N(C)C[C@@H](OC)[C@H](C)CN(Cc1ccccc1OC)[C@@H](C)CO2,inactive
9,C[C@@H]1CN([C@H](C)CO)C(=O)c2cc(NS(=O)(=O)c3cn(C)cn3)ccc2O[C@@H]1CN(C)S(=O)(=O)c1ccc(F)cc1,inactive
10,Cc1noc(C)c1NC(=O)Nc1ccc2c(c1)C(=O)N([C@@H](C)CO)C[C@H](C)[C@@H](CN(C)C(=O)Nc1ccc3c(c1)OCO3)OCCCC[C@H](C)O2,inactive
11,Cc1noc(C)c1NC(=O)N(C)C[C@H]1Oc2ccc(NC(=O)Cn3cnnn3)cc2C(=O)N([C@H](C)CO)C[C@H]1C,inactive
12,COc1ccc(CN(C)C[C@H]2Oc3ccc(NS(=O)(=O)c4c(C)noc4C)cc3CC(=O)N([C@@H](C)CO)C[C@H]2C)cc1,inactive
13,Cc1ccc(S(=O)(=O)N2C[C@@H](O)COC[C@H]3O[C@@H](CC(=O)N[C@@H]4CCN(Cc5ccccc5)C4)CC[C@@H]32)cc1,inactive
14,C[C@@H]1CN([C@H](C)CO)S(=O)(=O)c2ccc(C#CCC3CCCC3)cc2O[C@@H]1CN(C)C(=O)CN(C)C,inactive
15,CCCN1C[C@@H](C)[C@@H](OC)CN(C)C(=O)c2ccc(NS(=O)(=O)c3cn(C)cn3)cc2OC[C@H]1C,inactive
16,CC/C=C\C/C=C\C/C=C\C/C=C\C/C=C\CCCC(=O)O,inactive
17,C[C@H]1CN([C@@H](C)CO)C(=O)Cc2cc(NC(=O)c3ccncc3)ccc2O[C@@H]1CN(C)S(=O)(=O)c1cccs1,inactive
18,N#Cc1c(Oc2ccc(F)c(NC(=O)Cc3cccc(C(F)(F)F)c3)c2)ccc2nc(NC(=O)C3CC3)sc12,active
19,C[C@@H]1CN([C@@H](C)CO)C(=O)c2cc(NC(=O)Nc3ccc(C(F)(F)F)cc3)ccc2O[C@@H]1CN(C)Cc1ccc(C(=O)O)cc1,inactive
20,C[C@@H]1CN([C@@H](C)CO)C(=O)c2cc(NC(=O)CCC(F)(F)F)ccc2O[C@@H](C)CCCCO[C@H]1CN(C)C(=O)NC1CCCCC1,inactive
